Source: PubChem BioAssay AID1918952 (Molecular Pharmacology Branch, DTP, NCI, 2023)
Certain results were filed several times, with different values. This is not the full list of results. An entry can have further records. Values given together are repeated measurements (runs, samples, wells, individuals or studies). Marks such as (2×) say how often a value occurs here.

System: LG0703-F948-PDC complex spheroid viability
Assay: Anticancer human tumor LG0703-F948-PDC patient-derived lung adenocarcinoma cell line growth inhibition
Conditions: stronger effect = lower value
Excerpt: Multicellular complex tumor spheroid response to LSD1 Inhibitor Iadademstat in combination with a variety of drugs and investigational agents in selected tumor cell lines
The current study was undertaken to assess response to LSD1 inhibitors in combination with standard-of-care drugs and investigational agents in solid tumor complex spheroid models as well as in the K-562 leukemia. Complex spheroids include a stromal component modeled by human endothelial cells (HUVEC) and fibroblasts modeled by human mesenchymal stem cells (MSCs). The concentration ranges selected for each drug and investigational agent were based upon clinically achievable concentrations if the clinical Cmax of the agent was known.
Compounds. The drugs and investigational agents used in this study are listed on Table 1. All of the agents used, including staurosporine (NSC755774) and gemcitabine (NSC613327), were obtained from the Developmental Therapeutics Program, NCI. FDA-approved anticancer drugs are available from the NCI at http://dtp.nci.nih.gov/branches/dscb/oncology_drugset_explanation.html. Drugs and investigational agents were >95% pure by proton nuclear magnetic resonance (NMR) and liquid chromatography/mass spectrometry (LC/MS). Stock solutions were prepared at 400x in DMSO, stored at -70 degrees C, and diluted in fresh medium prior to their use. The final concentration of DMSO in cell culture wells never exceeded 0.25% (v/v). The FDA-approved anticancer drug set is available from the Developmental Therapeutics Program at https://dtp.cancer.gov/organization/dscb/obtaining/available_plates.htm. All drugs and investigational agents were tested over a range starting from a high concentration at or near the clinical Cmax and decreasing in half-log increments. If the clinical Cmax for an agent had not been determined, the highest concentration tested was 10 microM.
Cell Lines. The patient-derived cancer cell (PDC) lines: 292921-168-R-J2-PDC, K24384-001-R-PDC, and 521955-158-R2-J5-PDC pancreatic carcinomas, 556581-035-R-J1 ovarian carcinoma, 324938-238-R-J1-PDC, 855422-203-R-J1-PDC and 883617-216-R-J1-PDC urothelial bladder carcinomas, 743489-274-T-PDC renal cell carcinoma, 138582-R-J1 Merkel cell tumor, K60290-347-R-J1 and K57222-313-R-J1-PDC glioblastomas, 653999-131-R-J2-PDC, LG0703-F948-PDC, and 349418-098-R-PDC non-small cell lung carcinomas, 885512-296-R-J2-PDC, 171881-019-R-J1-PDC breast carcinomas and 186277-243-T-J2-PDC and 233499-124-R-J2-PDC colon carcinomas were obtained from the NCI Patient-Derived Models Repository (PDMR, https://pdmr.cancer.gov). The established cell lines NCI/ADR-RES (RRID:CVCL_14520 and OVCAR-5 (RRID:CVCL_1628) ovarian carcinomas, 786-O (RRID:CVCL_1051) and A498 (RRID:CVCL_A498) renal cell carcinoma, NCI-H211 (ATCC, cat. CRL-5824; RRID:CVCL_1529), NCI-H196 (ATCC, cat. CRL-5823, RRID:CVCL_1509), SW 1271 (ATCC, cat. CRL-2177, RRID:CVCL_1716) and NCI-H1876 (ATCC, cat. CRL-5902, RRID:CVCL_1503) small cell lung carcinomas, MDA-MB-231 (RRID:CVCL_0062) and MDA-MB-468 (RRID:CVCL_0419)breast carcinomas (10-12). Pooled donor human umbilical vein endothelial cells (HUVEC, Lonza, cat. CC-2519) and human mesenchymal stem cells (hMSC, Lonza, cat. PT-2501) were purchased from Lonza (Walkersville, MD).
Cell Culture. All cells were maintained in an incubator at 37 degrees C and 5% CO2 with 95% humidity. The PDC lines were cultured according to standard operating procedures established by the NCI PDMR (https://pdmr.cancer.gov). Briefly all PDCs were thawed and cultured in Matrigel-coated flasks prepared with a working solution of 1X Ham's F-12 nutrient mix, without supplementation (Invitrogen, Waltham, MA, cat. 11765054), 100 U/mL penicillin-streptomycin (Invitrogen, cat. 15140122), and 2.5% Matrigel (Corning Inc., Corning, NY, cat. 354248) for the first three passages. […]
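Note: spheroids exposed to agents for seven days before readout; 100% = DMSO vehicle control wells as normalization base.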

| Compound | viability, T/C (compound alone 0.316 µM) | viability, T/C (compound alone 1 µM) | viability, T/C (compound alone 10 µM) | viability, T/C (compound alone 0.1 µM) | viability, T/C (compound alone 3.16 µM) |
| --- | --- | --- | --- | --- | --- |
| NC1CC1c1ccc(-c2cccc(O)c2)cc1 (configuration not stated) | 100, 108 (2×), 99.8, 97.4, 107 (2×), 112 (2×), 116, 97.9 (2×), 105, 98.8, 111 (2×), 88.9, 98.2, 120, 99, 98.7, 96.2, 110, 98.3, 102% | 98.4, 114, 102, 95.9, 97.8, 94.5, 104, 90.8, 100 (2×), 91.6 (2×), 92.8, 91.2, 105, 96, 99.2, 82.3, 90, 95.3, 108, 101, 94.8, 95.4% | 81, 100, 111, 89.5, 94.5, 103 (2×), 98, 90, 98.6, 97.6, 88.5, 83.1, 90.6, 92.4, 89.7, 104, 91.1, 89.4, 110, 97, 93, 102 (2×), 97.2% | – | – |
| NC1CCC(NC2CC2c2ccccc2)CC1 (configuration not stated) | – | 101 (2×), 104 (2×), 109 (3×), 121 (2×), 117, 120, 97.1, 90.5, 115, 114 (3×), 112, 105 (2×), 102, 110, 119, 98.2, 96.6% | 115, 118, 107 (2×), 99.2, 133, 108, 126, 93.7, 114, 104 (2×), 103, 99.6, 106 (2×), 101, 119, 116, 102, 111, 105, 97.1% | 88.1, 107, 101 (2×), 87.6, 102 (2×), 96.4, 116, 103 (2×), 97.2, 87.5, 94 (2×), 104, 93, 100, 105, 98, 93.5, 108, 91.6, 96.8% | 127, 119, 117, 111 (3×), 123, 122, 135, 103, 108, 113 (3×), 116 (2×), 118 (3×), 124 (2×), 114, 120 (2×), 99.5% |
